This is an account of results in PubChem BioAssay AID360 (National Center for Advancing Translational Sciences (NCATS), 2006).

Among all 48,000 compounds or so, about 550 (1.1%) were called active. Inconclusive results (about 4%) are left out. Rule as the data show it: active = potency below about 15 µM; inconclusive = mostly about 16 µM to 33 µM; inactive = weaker than that. The list shows a part of the results.
Potency is read from the fitted curve at half-maximal effect.

This test has as its target Lysosomal acid glucosylceramidase (Homo sapiens) (UniProt P04062). Put plainly: Glucocerebrosidase.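 Also: the screen sought inhibitors.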 The settings on record: purified enzyme, resorufin glucoside fluorescence (screen aimed at inhibitors), 20 min. The method in brief: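 Normal human glucocerebrosidase (0.2 nM final) was assayed with resorufin β-D-glucopyranoside (30 uM final) in 50mM citric acid/KH2PO4, 10mM sodium taurocholate, 0.01% tween-20, pH 5.9. Compounds were titrated; fluorescence (Ex 548, Em 600) read after 20 min at RT.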
Sequence of UniProt P04062 (P04062 whole entry, looked up): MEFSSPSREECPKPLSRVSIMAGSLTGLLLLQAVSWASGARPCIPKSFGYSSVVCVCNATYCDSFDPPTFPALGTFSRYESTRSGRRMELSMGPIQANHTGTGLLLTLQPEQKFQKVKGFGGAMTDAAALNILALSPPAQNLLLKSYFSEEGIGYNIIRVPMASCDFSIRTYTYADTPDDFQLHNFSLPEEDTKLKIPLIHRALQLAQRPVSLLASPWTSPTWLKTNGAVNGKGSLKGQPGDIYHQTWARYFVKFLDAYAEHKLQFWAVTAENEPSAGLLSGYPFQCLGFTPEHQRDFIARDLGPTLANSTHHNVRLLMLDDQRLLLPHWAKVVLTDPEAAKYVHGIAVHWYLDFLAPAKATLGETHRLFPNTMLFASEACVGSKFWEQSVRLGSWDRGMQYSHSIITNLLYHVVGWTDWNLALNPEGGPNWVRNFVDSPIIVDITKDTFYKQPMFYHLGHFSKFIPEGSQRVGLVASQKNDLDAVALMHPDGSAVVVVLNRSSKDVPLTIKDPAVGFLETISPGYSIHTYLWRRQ
With `CC(C)(C)n1ncc2c(=O)n(CC(=O)c3ccc(Cl)cc3)cnc21`, the Potency is inactive: > 76.9 µM. Turning to `c1ccc(Sc2ncnc3c2oc2ccccc23)nc1`, the Potency was inactive: > 76.9 µM. As for `CCOc1ccc(C(=O)Nc2cccc(-c3nc4cccnc4o3)c2)cc1Cl`, the Potency is inactive: > 76.9 µM. For the compound `COc1cccc2cc(C(=O)C3=C(O)C(=O)N(CCN4CCOCC4)C3c3cccs3)oc12` (stereo unspecified), the Potency was inactive: > 76.9 µM. As for `Cc1csc(NC(=O)CCS(=O)(=O)c2ccc(Br)cc2)n1`, the Potency was inactive: > 76.9 µM. For `O=C(NCc1ccco1)c1ccc(COCC(F)(F)F)cc1`, the Potency is inactive: > 76.9 µM. As for `O/N=C(\COc1ccccc1O)c1ccccc1`, the Potency was inactive: > 76.9 µM. Turning to `O=S(=O)(NCCc1csc(-c2ccccc2)n1)c1ccc2c(c1)OCCO2`, the Potency is inactive: > 76.9 µM. As to `O=C1c2cccnc2C(=O)N1Cc1ccco1`, the Potency was inactive: > 76.9 µM.

Turning to `COc1ccc(C(=O)NC(=O)Nc2cc(C)ccn2)cc1`, the Potency is inactive: > 76.9 µM. The result for `CCc1nnc(NC(=O)CSc2nc3c(c(=O)n2-c2ccccc2OC)SCC3)s1` reads inactive: > 76.9 µM. `COc1ccccc1N1CC(C(=O)OCC(=O)c2ccc(F)cc2)CC1=O` (stereo unspecified): the Potency was inactive: > 76.9 µM. The result for `O=c1c(-c2ccccc2)n[nH]c2ccccc12` reads inactive: > 76.9 µM; that for `O=C(OCC(=O)N1CCN(c2ccccc2)CC1)C1=COCCO1`, inactive: > 76.9 µM; that for `CCOC(=O)C1C(=O)CC(C)(O)C(C(=O)OCC)C1c1cccc(OC(F)(F)C(F)F)c1` (stereo unspecified), inactive: > 76.9 µM.

For `Cc1ccc(NC(=O)C2CCCN(S(=O)(=O)c3c(C)noc3C)C2)nc1` (stereo unspecified), the Potency is inactive: > 76.9 µM. For `O=C(NCCC(=O)N1CCNC1=O)OCc1ccccc1`, the Potency was inactive: > 76.9 µM. In the case of `O=C(c1ccccc1OCc1ccccc1Br)N1CCN(c2ncccn2)CC1` it was inactive: > 76.9 µM; in that of `Cc1cc(C)c2c(N)c(C(=O)N3CCN(c4ncccn4)CC3)sc2n1`, inactive: > 76.9 µM.

Turning to `O=C(NCc1ccncc1)Nc1ccc(F)cc1`, the Potency is inactive: > 76.9 µM.

Take `O=C(O)CC(c1ccccc1)n1cccc1` (stereo unspecified): the Potency was inactive: > 76.9 µM. With `Cn1c(=O)cc(OCCCC(=O)NC2CCCC2)c2ccccc21`, the Potency is inactive: > 76.9 µM. In the case of `COc1ccc(CNC(=O)C(c2cccs2)N(C(=O)c2csnn2)C2CC2)cc1` (stereo unspecified) it was inactive: > 76.9 µM.

With `O=C(O)CSc1nnc(Cc2ccccc2)n1Cc1ccccc1`, the Potency was inactive: > 76.9 µM.

Regarding `CSc1ccccc1-n1nnnc1SCc1ccccc1`, the Potency is inactive: > 76.9 µM.

As for `CCC(NC(=O)OC(C)(C)C)C(=O)Oc1ccc2c3c(c(=O)oc2c1)CCC3` (stereo unspecified), the Potency is inactive: > 76.9 µM.
